The values below come from patent publication US20260193317A1, “COMBINATION THERAPY WITH ACTRIIB RECEPTOR VARIANTS AND GLP-1 AGONISTS” (35PHARMA Inc., priority 2023, published 2026).

The IC50 is the concentration that gives 50% inhibition.

The target of one data set is T1, BMP-9 (Homo sapiens, UniProt Q9UK05).
T1 sequence (Q9UK05 320-429): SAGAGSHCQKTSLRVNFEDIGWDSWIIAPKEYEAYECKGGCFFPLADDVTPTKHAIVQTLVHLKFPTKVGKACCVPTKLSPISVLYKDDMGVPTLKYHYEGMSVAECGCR
Kind of data set: BMP-reporter HepG2 cell-based assay: BMP-9 neutralization. Particulars: for IC50: BMP-reporter HepG2 cells, BMP-9 2 ng/mL. Here is the method: (§1) Characterization of the BMP-9 and BMP-10 inhibition potency (IC50) of the fusion proteins was performed using a second cell-based reporter assay. Human hepatic HepG2 cells were transfected with a SEAP-encoding plasmid, in which SEAP expression is under the control of the murine Id1 promoter. A stable pool was generated from this transfection. Cells were grown in EMEM, containing 10% heat-inactivated FBS and 200 μg/mL zeocin (hereafter, “HepG2 growth medium”). […] For all assays, cells were seeded in 96-well plates at a confluence of 100,000 cells per well in HepG2 growth medium. Cells were left to attach for 10 minutes at RT prior to being transferred to a 37° C. incubator (5% CO2) overnight. The next day, treatments were prepared in EMEM (2.5% heat-inactivated FBS and with no selection agents) by combining the appropriate concentration of agent with BMP-9 or BMP-10 for 30 min at RT (shaking at 150 rpm). Treatments were conducted in EMEM (2.5% heat-inactivated FBS and with no selection agents), and the final concentration of BMP-9 and BMP-10 was 2 ng/mL and 40 ng/mL, respectively. HepG2 growth medium was removed from the culture plates, and cells were treated with the appropriate mixes of fusion protein and cytokine. Treatment duration was for 20-24 h at 37° C. (5% CO2). All treatments were performed in technical duplicates and at least one or two independent experiments were conducted for each cytokine. At the end of the treatment period, supernatants were transferred to a new plate, and centrifuged at 300 RPM for 3 min. Forty microlitres of supernatant from each condition was transferred to a new plate, onto which 180 μL of Quanti-Blue reagent was added. Quanti-Blue reagent was prepared following the manufacturer's instructions. Samples were incubated for 5-6 h with Quanti-Blue reagent at 37° C. At the end of the incubation, absorbance was read at 650 nm. The data were plotted in GraphPad Prism, which was used to calculate IC50 values as a non-linear regression.

A short description of data set [1]: SEC-HPLC monomer and HMW content of purified fusion proteins. The data set is classed as physicochemical. The note with it: after Protein A purification. The source says:
Given that protein aggregation can be indicative of reduced conformational stability and decreased activity, Size-Exclusion Chromatography-High Performance Liquid Chromatography (SEC-HPLC) was used to determine the purity of each ActRIIB-ECD construct. This method measured the percentage of intact monomeric species as well as the presence of aggregates and/or degradation products.
All proteins expressed efficiently in CHO and/or 293 cells and purification efficiency of each using Protein A affinity chromatography was similar.
On the technique in general: SEC sorts molecules by how far they enter the pores of the column.

Another data set addresses T2, activin A (Homo sapiens, UniProt P08476).
T2 sequence (P08476 311-426): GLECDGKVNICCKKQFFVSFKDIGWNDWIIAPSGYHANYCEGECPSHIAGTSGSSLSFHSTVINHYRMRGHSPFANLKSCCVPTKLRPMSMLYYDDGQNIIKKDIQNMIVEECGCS
Kind of data set: TGFβ-reporter HEK293 cell-based assay: activin A neutralization. The note with it: for IC50: TGFβ-reporter HEK293 cells, ligand 0.3 nM. On the procedure:
(§2) Potency testing by neutralization on cell-based assays. Characterization of the activin A, activin B, GDF-8, and GDF-11 inhibition potency (IC50) of the fusion proteins was performed using a cell-based reporter assay. TGFβ-reporter HEK293 cells were obtained from InvivoGen (San Diego, CA, cat. no. hkb-tgfb) and were maintained following the manufacturer's instructions. Briefly, cells were grown in high-glucose DMEM, containing 10% heat-inactivated FBS, 30 μg/mL blasticidin, 250 μg/mL hygromycin B, and 100 μg/mL zeocin (hereafter, “growth medium”). Once the cells reached 70-80% confluence, they were detached in growth medium by gently tapping on the flask. For all assays, cells were seeded in 96-well plates at a density of 20,000 cells per well in growth medium. Cells were left to attach for 10 minutes at room temperature (RT) prior to being transferred to a 37° C. incubator (5% CO2) overnight. The next day, treatments were prepared by combining the appropriate concentration of agent with activin A, activin B, GDF-8, or GDF-11 for 30 min at RT (shaking at 150 rpm). Treatments were conducted in high-glucose DMEM (serum-free and with no selection agents), and the final concentration of cytokine (ligand) was 0.3 nM. Growth medium was removed from the culture plates, and cells were treated with the appropriate mixes of fusion protein and cytokine. Treatment duration was for 18-22 h at 37° C. (5% CO2). All treatments were performed in technical duplicates and at least one or two independent experiments were conducted for each cytokine. At the end of the treatment period, supernatants were transferred to a new plate, and centrifuged at 300 RPM for 3 min. Forty microlitres of supernatant from each condition was transferred to a new plate, into which 180 μL of Quanti-Blue reagent (InvivoGen, cat. no. rep-qbs) was added. Quanti-Blue reagent was prepared following the manufacturer's instructions. Samples were incubated for 45 min at 37° C. At the end of the incubation, absorbance was read at 650 nm. The data were plotted in GraphPad Prism, which was used to calculate IC50 values as a non-linear regression.

For another data set, the system named is TGFβ superfamily ligands. Kind of data set: Neutralization profile across TGFβ superfamily ligands (HEK293 and HepG2 reporter assays, summary). The data set is classed as cell-based, human. Here is the method: as §2
Characterization of the BMP-9 and BMP-10 inhibition potency (IC50) of the fusion proteins was performed using a second cell-based reporter assay. Human hepatic HepG2 cells were transfected with a SEAP-encoding plasmid, in which SEAP expression is under the control of the murine Id1 promoter. A stable pool was generated from this transfection. Cells were grown in EMEM, containing 10% heat-inactivated FBS and 200 μg/mL zeocin (hereafter, “HepG2 growth medium”). […] For all assays, cells were seeded in 96-well plates at a confluence of 100,000 cells per well in HepG2 growth medium. Cells were left to attach for 10 minutes at RT prior to being transferred to a 37° C. incubator (5% CO2) overnight. The next day, treatments were prepared in EMEM (2.5% heat-inactivated FBS and with no selection agents) by combining the appropriate concentration of agent with BMP-9 or BMP-10 for 30 min at RT (shaking at 150 rpm). Treatments were conducted in EMEM (2.5% heat-inactivated FBS and with no selection agents), and the final concentration of BMP-9 and BMP-10 was 2 ng/mL and 40 ng/mL, respectively. HepG2 growth medium was removed from the culture plates, and cells were treated with the appropriate mixes of fusion protein and cytokine. Treatment duration was for 20-24 h at 37° C. (5% CO2). All treatments were performed in technical duplicates and at least one or two independent experiments were conducted for each cytokine. At the end of the treatment period, supernatants were transferred to a new plate, and centrifuged at 300 RPM for 3 min. Forty microlitres of supernatant from each condition was transferred to a new plate, onto which 180 μL of Quanti-Blue reagent was added. Quanti-Blue reagent was prepared following the manufacturer's instructions. Samples were incubated for 5-6 h with Quanti-Blue reagent at 37° C. […]
For orientation: Reporter assays use an easily measured gene product as a stand-in for the process of interest.

The target in the next data set is T3, BMP-10 (Homo sapiens, UniProt O95393).
T3 sequence (O95393 317-424): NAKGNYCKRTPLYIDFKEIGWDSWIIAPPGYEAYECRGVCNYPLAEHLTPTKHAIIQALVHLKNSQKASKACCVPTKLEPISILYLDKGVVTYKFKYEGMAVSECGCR
As to the kind of experiment: BMP-reporter HepG2 cell-based assay: BMP-10 neutralization. The note with it: BMP-reporter HepG2 cells, BMP-10 40 ng/mL. Here is the method:
as §1

For a further data set, the target named is GDF-11 (Homo sapiens, UniProt O95390). Kind of data set: TGFβ-reporter HEK293 cell-based assay: GDF-11 neutralization. Particulars: TGFβ-reporter HEK293 cells, ligand 0.3 nM. Here is the method: as §2
Sequence of GDF-11 (O95390 299-407): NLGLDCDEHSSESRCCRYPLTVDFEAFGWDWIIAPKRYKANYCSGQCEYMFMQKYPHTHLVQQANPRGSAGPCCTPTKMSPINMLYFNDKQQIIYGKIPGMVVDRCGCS
The target of another data set is T4, activin B (Homo sapiens, UniProt P09529).
T4 sequence (P09529 293-407): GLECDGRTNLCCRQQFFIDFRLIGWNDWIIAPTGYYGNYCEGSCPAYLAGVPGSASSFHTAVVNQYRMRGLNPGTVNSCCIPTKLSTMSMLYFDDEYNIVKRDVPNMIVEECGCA
As to the kind of experiment: TGFβ-reporter HEK293 cell-based assay: activin B neutralization. The note with it: TGFβ-reporter HEK293 cells, ligand 0.3 nM. On the procedure: (§3) Potency testing by neutralization on cell-based assays. Characterization of the activin A, activin B, GDF-8, and GDF-11 inhibition potency (IC50) of the fusion proteins was performed using a cell-based reporter assay. TGFβ-reporter HEK293 cells were obtained from InvivoGen (San Diego, CA, cat. no. hkb-tgfb) and were maintained following the manufacturer's instructions. Briefly, cells were grown in high-glucose DMEM, containing 10% heat-inactivated FBS, 30 μg/mL blasticidin, 250 μg/mL hygromycin B, and 100 μg/mL zeocin (hereafter, “growth medium”). Once the cells reached 70-80% confluence, they were detached in growth medium by gently tapping on the flask. For all assays, cells were seeded in 96-well plates at a density of 20,000 cells per well in growth medium. Cells were left to attach for 10 minutes at room temperature (RT) prior to being transferred to a 37° C. incubator (5% CO2) overnight. The next day, treatments were prepared by combining the appropriate concentration of agent with activin A, activin B, GDF-8, or GDF-11 for 30 min at RT (shaking at 150 rpm). Treatments were conducted in high-glucose DMEM (serum-free and with no selection agents), and the final concentration of cytokine (ligand) was 0.3 nM. Growth medium was removed from the culture plates, and cells were treated with the appropriate mixes of fusion protein and cytokine. Treatment duration was for 18-22 h at 37° C. (5% CO2). All treatments were performed in technical duplicates and at least one or two independent experiments were conducted for each cytokine. At the end of the treatment period, supernatants were transferred to a new plate, and centrifuged at 300 RPM for 3 min. Forty microlitres of supernatant from each condition was transferred to a new plate, into which 180 μL of Quanti-Blue reagent (InvivoGen, cat. no. rep-qbs) was added. Quanti-Blue reagent was prepared following the manufacturer's instructions. Samples were incubated for 45 min at 37° C. At the end of the incubation, absorbance was read at 650 nm. […]

The target in a further data set is GDF-8 (Homo sapiens, UniProt O14793). Kind of data set: TGFβ-reporter HEK293 cell-based assay: GDF-8 neutralization. Particulars: TGFβ-reporter HEK293 cells, ligand 0.3 nM. On the procedure: as §3

B1: P754: hActRIIB T69Q, 14 aa linker, IgG1-DL Fc; SEQ ID 178 (protein)
chain: ETRECIYYNANWELERTNQSGLERCEGEQDKRLHCYASWRNSSGTIELVKKGCWLDDFNCYDRQECVAQEENPQVYFCCCEGNFCNERFTHLPEAGGPEVTYEPPPTGGGGSGGGGSGG[human IgG1 Fc and a few adjoining residues not spelt out]
Regarding B1, the 50% inhibitory concentration (IC50) with BMP-9 came to 3.5 nM; with activin A, 1.5 nM; with BMP-10, 2.5 nM; in the data set with GDF-11, 1.6 nM; in the data set with activin B it was 2.1 nM. Also, the “high molecular weight (HMW) content (SEC-HPLC)” value (from here on “high molecular weight”) in data set [1] was 7%. Also, the “monomer content (SEC-HPLC)” value in data set [1] is 93%. In addition, the “improved potency on activin A relative to P75” value with activin A was ~ 1.5 fold. In addition, in the data set on TGFβ superfamily ligands, the “reduced potency on most TGFβ superfamily ligands (activin B, GDF-8, GDF-11, BMP-9, BMP-10) relative to P75” value is ~ 2 fold.

B2: P753: hActRIIB T69H, 14 aa linker, IgG1-DL Fc; SEQ ID 177 (protein)
chain: ETRECIYYNANWELERTNQSGLERCEGEQDKRLHCYASWRNSSGTIELVKKGCWLDDFNCYDRQECVAHEENPQVYFCCCEGNFCNERFTHLPEAGGPEVTYEPPPTGGGGSGGGGSGG[human IgG1 Fc and a few adjoining residues not spelt out]
As for B2, the half-inhibitory concentration (IC50) in the data set with GDF-8 is 1.4 nM; with BMP-9, 2.1 nM; with activin A it was 1.6 nM; with BMP-10, 2.9 nM; with GDF-11, 1.5 nM; in the data set with activin B, 2.4 nM. Further, the “high molecular weight” value in data set [1] is 16%. In data set [1], the “monomer content (SEC-HPLC)” value was found to be 84%. Also, the “improved potency on activin A relative to P75” value with activin A is ~ 1.5 fold. Also, in the data set with TGFβ superfamily ligands, the “reduced potency on most TGFβ superfamily ligands (activin B, GDF-8, GDF-11, BMP-9, BMP-10) relative to P75” value is listed as ~ 2 fold.

B3: P739: hActRIIB G27E, 14 aa linker, IgG1-DL Fc; SEQ ID 174 (protein)
chain: ETRECIYYNANWELERTNQSGLERCEEEQDKRLHCYASWRNSSGTIELVKKGCWLDDFNCYDRQECVATEENPQVYFCCCEGNFCNERFTHLPEAGGPEVTYEPPPTGGGGSGGGGSGG[human IgG1 Fc and a few adjoining residues not spelt out]
Take B3: the IC50 in the data set with GDF-8 came out at 2 nM; in the data set with BMP-9, 1.1 nM; with activin A, 3.5 nM; in the data set with BMP-10, 4 nM; with GDF-11, 2.1 nM; with activin B it was 6 nM. In addition, the “improved potency on BMP-9” value in the data set with BMP-9 (relative to P75) is on record as ~ 2 fold. Further, in data set [1], the “high molecular weight” value is recorded as 14%. In data set [1], the “monomer content (SEC-HPLC)” value worked out at 86%. The “reduced neutralization of activin A, activin B, GDF-8, GDF-11, and BMP-10” value in the data set on TGFβ superfamily ligands (relative to P75) is listed as 2-3 fold.
